Source: the supplement of paper PMC11417369
The list shows a part of the results.

tested on: PfHDP1 homeodomain (GST-tagged); experiment: gcPBM binding intensity (ln(normalized median fluorescence intensity)); higher = stronger DNA binding
How it was run: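 For binding intensity, the highest Masliner-normalised natural-log median intensity across replicate spots of either probe orientation was taken. Protein bound to the array was stained with Alexa488 anti-GST antibody and scanned at 488 nm. The protein, GST-tagged P. falciparum DNA-binding domains from E. coli at about 25 μg on average, had been applied for 1 h to an Agilent 4 × 180k array of primer-extended double-stranded 36-bp intergenic genomic probes and negative controls.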

| Sequence | gcPBM binding intensity (ln) |
| --- | --- |
| ATATATTTTTTAAATTTAAAAATTATAAAATTTATA [TGCATGCA_negctrl_site36] | 6.53 |
| AAACGATCTCGATGTTGTACACATTTATATAGAAAC [XGTACX_site4373] | 7.26 |
| CATGTGTGTATAATTTGTACATATACATAATAAATA [XGTACX_site2418] | 6.57 |
| CTAAACTAAACAAACTGTACACAAATAAAACAATAA [XGTACX_site8880] | 6.99 |
| TACTAAAATATATATATGCAACATGAGATATTCAAC [XGTACX_negctrl_site283] | 7.19 |
| ATATCAACTGAATTGTATAGGCGATAAAAGAAAAAA [CACACA_negctrl_site1334] | 6.58 |
| ATATAAATATATGTATGTACACATTTTTTTTTTTTT [XGTACX_site247] | 6.47 |
| AGAATTATAAATTATAGTACATAAAATTTTGATGTA [XGTACX_site5726] | 6.4 |
| AAGTTTATTATATATAAATTATTATATATATATATA [CACACA_negctrl_site189] | 9.02 |
| AAAATAATAATTAAATAATAGTAAATGAAAAATAAA [CACACA_negctrl_site57] | 6.63 |
| ACTTCATTTTATAAGTGTACATAATTTGTTTATATA [XGTACX_site5453] | 6.62 |
| TATGTGTTCAGTATTGCACACACACTCCAAAATAAA [CACACA_site8018] | 10.2 |
| ATAAATACTAGGCACACACACATATAGATTTATATA [CACACA_site7064] | 6.8 |
| GTTGTCCCCCTTTCTATGCACACTTTAAATTATTCA [CACACA_site52] | 9.08 |
| ATTCTAATAGATAGTAGTACCTATAAGTTTTCTTTT [XGTACX_site2315] | 6.02 |
| AATTTATAAGAATATTGTACGTTTAATATATTGTAA [XGTACX_site7553] | 6.48 |
| TCACACACTCTCAAAAGTACAAGAAGATTATGAAGA [XGTACX_site4748] | 6.6 |
| ATCTATCATATTTATGCACACAAAAATAATTAATTC [CACACA_site8837] | 9.66 |
| ATGAACTAAACTAATCGTACAATAAGTTTTATTATA [XGTACX_site4891] | 6.11 |
| AAAAAAATATATAAATGTACATATTGTTTAATTAAT [XGTACX_site3794] | 6.47 |
| TATTATTTACTTATTGCACACATATAAAATATATTT [CACACA_site9017] | 10.2 |
| TAAAAGATAAAATATGCATGTGTAATTTTTTTTTTT [TGCATGCA_site955] | 6.4 |

| Sequence | gcPBM binding intensity (ln) |
| --- | --- |
| TTTATAACATTTAAGAGTACAAAAAAATAAATAAAT [XGTACX_site1264] | 6.71 |
| TTCAACGTTTTGGAATGTACAGAAAGGTATCCATCA [XGTACX_site179] | 6.43 |
| GAAATATAATTTATTACACACATTTTAAAAAAATTC [CACACA_site1087] | 6.07 |
| AAAAAAAAAAAAAAAAAAAAAAAAAAAAAATATGTG [GTGCAC_negctrl_site657] | 7.24 |
| TAATTTATTACCATGTAATTATTACGAATATAGGAT [CACACA_negctrl_site694] | 6.46 |
| AAAAAATTATTAATTTGTACATAAATAACCAAAAAA [XGTACX_site2488] | 6.36 |
| TATATATTAAAATAATCACACACATCAATTAATGGT [CACACA_site8331] | 6.55 |
| TTTTTTTTTTTTTTTTTTTTTTTTTTATGATATATA [GTGCAC_negctrl_site365] | 6 |
| ATATTATAATGTTTTTACGAATTCGCAAATTATTAT [GTGCAC_negctrl_site470] | 6.52 |
| ATATGCACTCATTGTGCACACGCATATTACGAAAAG [CACACA_site2637] | 11.6 |
| AATTTACAAAAAAGAAAAAAAAAAAAAAAGATACTT [CACACA_negctrl_site1434] | 5.89 |
| TTAATTATCCATTTTGCACACATTTTAAAACATGAA [CACACA_site189] | 10.7 |
| AGATTGTATTTATGTACACACATTTTTGGAATATGA [CACACA_site1340] | 6.95 |
| TTAAATATAATTATATGTACATATTTATGTATATAT [XGTACX_site5811] | 6.32 |
| TTGATTAAAATTAGTACACACAAAATACATGCGGGG [CACACA_site5284] | 6.95 |
| AATAAAAAATATATGAGTACTAAATTGTTTTCTTAA [XGTACX_site8573] | 6.22 |
| GGGAAAATAAATAAAGTGCAGATATTAAAAGTTGTA | 7.04 |
| TTGCATATTTCTAATTGTACATTATTTTATTTTATA [XGTACX_site8451] | 6.9 |
| CTCAACGATAGAGAAACATGCAAGTATAAGCAACTA [TGCATGCA_site771] | 6.83 |
| ATTTTACATATTTGCACACATATATTTAAATACATA [CACACA_site4627] | 10.8 |
| GAGTTATTTCTTATTTAAGCATTCTACATATATATA [CACACA_negctrl_site239] | 6.6 |
| AAGAAAATTAAATTAACACACATAAATATATATATA [CACACA_site1664] | 8.61 |
